# The list shows a part of the results.
# B1: OVGAL11 (Ovis aries), AAF64320 (protein)
# chain: MDSLPNPYLQSVSLTVCYMVKIKANLLSAFGKNPELQVDFGTGTGQGGNIPFRFWYCDGMVVMNTFTDGSWQKEEKVLTDAFVPGQPFELQFLVLEKEYQVFVKNKPICQFAHRLPLQSVKMLDVRGDIVLTSVDTL
# Legend:
# Assay in all cases: glycan array binding signal (z-score within array); higher = stronger binding
# Details in all cases: glycan notation: IUPAC condensed, linker removed
# [1] = biological target: Neu5Ac(a2-8)Neu5Ac(a2-3)Gal(b1-3)GalNAc(b1-4)[Neu5Ac(a2-3)]Gal(b1-4)Glc
# Summary of the method: (§1)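 Glycan array data came from 3228 arrays in the Consortium for Functional Glycomics database, and only arrays with an available protein sequence were kept. Glycan names were put into IUPAC-condensed notation, and columns mapping to the same glycan were averaged. The binding signal is a within-array Z-score, averaged across arrays of one protein sequence run at different concentrations or buffers and across linkers. A negative Z-score can be read as non-binding.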
# [2] = biological target: Neu5Ac(a2-8)Neu5Ac(a2-3)Gal(b1-3)GalNAc(b1-4)[Neu5Ac(a2-8)Neu5Ac(a2-3)]Gal(b1-4)Glc
# Summary of the method: as §1
# [3] = biological target: Neu5Ac(a2-8)Neu5Ac(a2-3)Gal(b1-4)Glc
# Summary of the method: as §1
# [4] = biological target: Neu5Ac(a2-8)Neu5Ac(a2-3)Gal(b1-4)GlcNAc
# Summary of the method: as §1
# [5] = biological target: Neu5Ac(a2-8)Neu5Ac(a2-3)[Gal(b1-3)GalNAc(b1-4)]Gal(b1-4)Glc
# Summary of the method: as §1
# [6] = biological target: Neu5Ac(a2-8)Neu5Ac(a2-3)[GalNAc(b1-4)]Gal(b1-4)Glc
# Summary of the method: as §1
# [7] = biological target: Neu5Ac(a2-8)Neu5Ac(a2-8)Neu5Ac
# Summary of the method: as §1
# [8] = biological target: Neu5Ac(a2-8)Neu5Ac(a2-8)Neu5Ac(a2-3)Gal(b1-4)Glc
# Summary of the method: as §1
# [9] = biological target: Neu5Ac(a2-8)Neu5Ac(a2-8)Neu5Ac(a2-3)[Gal(b1-3)GalNAc(b1-4)]Gal(b1-4)Glc
# Summary of the method: as §1
# [10] = biological target: Neu5Ac(a2-8)Neu5Ac(a2-8)Neu5Ac(a2-3)[GalNAc(b1-4)]Gal(b1-4)Glc
# Summary of the method: as §1
# [11] = biological target: Neu5Ac(a2-8)Neu5Ac(a2-8)Neu5Ac(a2-8)Neu5Ac(a2-3)[GalNAc(b1-4)]Gal(b1-4)Glc
# Summary of the method: as §1
# [12] = biological target: Neu5Ac(a2-8)Neu5Gc(a2-3)Gal(b1-4)GlcNAc
# Summary of the method: as §1
# [13] = biological target: Neu5Ac(b2-6)Gal(b1-4)GlcNAc
# Summary of the method: as §1
# Neu5Ac(b2-6)GalNAc = biological target: Neu5Ac(b2-6)GalNAc
# Summary of the method: as §1
# [14] = biological target: Neu5Ac9Ac(a2-3)Gal(b1-3)GlcNAc
# Summary of the method: as §1
# [15] = biological target: Neu5Ac9Ac(a2-3)Gal(b1-4)GlcNAc
# Summary of the method: as §1
# [16] = biological target: Neu5Ac9Ac(a2-6)Gal(b1-4)GlcNAc
# Summary of the method: as §1
# [17] = biological target: Neu5Gc(a2-3)Gal(b1-3)GlcNAc
# Summary of the method: as §1
# [18] = biological target: Neu5Gc(a2-3)Gal(b1-3)[Fuc(a1-4)]GlcNAc
# Summary of the method: as §1
# Neu5Gc(a2-3)Gal(b1-4)Glc = biological target: Neu5Gc(a2-3)Gal(b1-4)Glc
# Summary of the method: as §1
# [19] = biological target: Neu5Gc(a2-3)Gal(b1-4)GlcNAc
# Summary of the method: as §1
# [20] = biological target: Neu5Gc(a2-3)Gal(b1-4)GlcNAc(b1-3)Gal(b1-4)GlcNAc(b1-2)Man(a1-3)[Neu5Gc(a2-3)Gal(b1-4)GlcNAc(b1-3)Gal(b1-4)GlcNAc(b1-2)Man(a1-6)]Man(b1-4)GlcNAc(b1-4)GlcNAc
# Summary of the method: as §1
# [21] = biological target: Neu5Gc(a2-3)Gal(b1-4)[Fuc(a1-3)]GlcNAc
# Summary of the method: as §1
# [22] = biological target: Neu5Gc(a2-3)Gal(b1-4)[Fuc(a1-4)]GlcNAc
# Summary of the method: as §1
# [23] = biological target: Neu5Gc(a2-6)Gal(b1-4)GlcNAc
# Summary of the method: as §1
# Neu5Gc(a2-6)GalNAc = biological target: Neu5Gc(a2-6)GalNAc
# Summary of the method: as §1
# [24] = biological target: Neu5Gc(a2-8)Neu5Ac(a2-3)Gal(b1-4)GlcNAc
# Summary of the method: as §1
# [25] = biological target: Neu5Gc(a2-8)Neu5Gc(a2-3)Gal(b1-4)GlcNAc
# Summary of the method: as §1
# [26] = biological target: Neu5Gc(a2-8)Neu5Gc(a2-3)Gal(b1-4)GlcNAc(b1-3)Gal(b1-4)GlcNAc
# Summary of the method: as §1
# [27] = biological target: Neu5Gc(a2-8)Neu5Gc(a2-6)Gal(b1-4)GlcNAc
# Summary of the method: as §1
# [28] = biological target: Neu5Gc(b2-6)Gal(b1-4)GlcNAc
# Summary of the method: as §1
binder,measurement,setting,value
B1,glycan array binding signal (z-score),[1],1.75
same,glycan array binding signal (z-score),[2],-0.057
same,glycan array binding signal (z-score),[3],-0.306
same,glycan array binding signal (z-score),[4],-0.116
same,glycan array binding signal (z-score),[5],13.5
same,glycan array binding signal (z-score),[6],-0.369
same,glycan array binding signal (z-score),[7],-0.256
same,glycan array binding signal (z-score),[8],-0.262
same,glycan array binding signal (z-score),[9],-0.044
same,glycan array binding signal (z-score),[10],0.144
same,glycan array binding signal (z-score),[11],-0.225
same,glycan array binding signal (z-score),[12],0.807
same,glycan array binding signal (z-score),[13],-0.075
same,glycan array binding signal (z-score),Neu5Ac(b2-6)GalNAc,-0.064
same,glycan array binding signal (z-score),[14],-0.105
same,glycan array binding signal (z-score),[15],-0.116
same,glycan array binding signal (z-score),[16],0.262
same,glycan array binding signal (z-score),[17],-0.172
same,glycan array binding signal (z-score),[18],-0.072
same,glycan array binding signal (z-score),Neu5Gc(a2-3)Gal(b1-4)Glc,-0.214
same,glycan array binding signal (z-score),[19],-0.362
same,glycan array binding signal (z-score),[20],-0.031
same,glycan array binding signal (z-score),[21],-0.101
same,glycan array binding signal (z-score),[22],0.714
same,glycan array binding signal (z-score),[23],-0.26
same,glycan array binding signal (z-score),Neu5Gc(a2-6)GalNAc,-0.016
same,glycan array binding signal (z-score),[24],-0.075
same,glycan array binding signal (z-score),[25],-0.07
same,glycan array binding signal (z-score),[26],-0.115
same,glycan array binding signal (z-score),[27],-0.096
same,glycan array binding signal (z-score),[28],-0.073

# — the supplement of paper PMC8728848
